Over roughly 33,000 sequences, “E-score (-0.5 to 0.5)” has its median near -0.035; the highest 2% begin near 0.35. The list shows a part of the results.
Biological target: T1, Pdr3 (UniProt P33200)
T1 sequence: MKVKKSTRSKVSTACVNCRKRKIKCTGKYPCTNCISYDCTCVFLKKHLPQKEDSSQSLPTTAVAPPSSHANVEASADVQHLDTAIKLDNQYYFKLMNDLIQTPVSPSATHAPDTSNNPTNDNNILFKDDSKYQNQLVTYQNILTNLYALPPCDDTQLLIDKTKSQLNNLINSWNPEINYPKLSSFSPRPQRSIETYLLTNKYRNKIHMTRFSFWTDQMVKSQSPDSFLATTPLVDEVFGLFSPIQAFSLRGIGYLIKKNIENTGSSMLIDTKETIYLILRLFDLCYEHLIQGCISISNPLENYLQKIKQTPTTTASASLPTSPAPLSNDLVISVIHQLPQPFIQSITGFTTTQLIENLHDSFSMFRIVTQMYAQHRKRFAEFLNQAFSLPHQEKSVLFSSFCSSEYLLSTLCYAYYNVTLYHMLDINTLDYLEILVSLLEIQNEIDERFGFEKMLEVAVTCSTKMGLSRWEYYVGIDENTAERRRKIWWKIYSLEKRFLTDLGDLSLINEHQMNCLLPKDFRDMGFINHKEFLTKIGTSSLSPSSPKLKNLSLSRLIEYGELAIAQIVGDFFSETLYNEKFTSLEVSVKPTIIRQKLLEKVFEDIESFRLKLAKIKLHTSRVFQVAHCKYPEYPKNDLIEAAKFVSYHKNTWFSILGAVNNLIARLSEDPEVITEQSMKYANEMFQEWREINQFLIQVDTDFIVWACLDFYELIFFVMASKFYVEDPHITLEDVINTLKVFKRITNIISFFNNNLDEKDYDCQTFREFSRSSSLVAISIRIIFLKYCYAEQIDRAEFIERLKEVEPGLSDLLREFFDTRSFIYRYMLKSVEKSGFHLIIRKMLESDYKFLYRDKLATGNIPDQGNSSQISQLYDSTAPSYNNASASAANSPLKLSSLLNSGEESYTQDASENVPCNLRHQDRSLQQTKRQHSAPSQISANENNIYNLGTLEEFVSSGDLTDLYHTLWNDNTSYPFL
Assay: PBM E-score (8-mer binding enrichment) (E-score (-0.5 to 0.5)); higher = stronger / more preferred TF binding; most listed sequences are background and not binding sites
Conditions: protein concentration: 200 nM; construct: GST-full length
How it was run: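 GST-tagged yeast TFs (full-length or DNA-binding domain) were made by PURExpress in vitro transcription/translation and applied at about 100-200 nM to universal all-10-mer Agilent arrays. The arrays were made double-stranded by primer extension, on fresh or once-stripped slides. Bound protein was detected with fluorescent anti-GST, and scans were normalised with masliner. Each ungapped eight-base word, pooled with its reverse complement, received an E-score (modified Wilcoxon-Mann-Whitney statistic) from the Universal PBM Analysis Suite.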

Sequence | PBM E-score
AGAATATG | 0.103
GCCGTCAC | 0.217
CTATTCTA | -0.0816
AGTAACGG | 0.134
GGGATCAC | -0.0461
CGGCCCTC | 0.0254
CCGATAGC | 0.059
AGGAGTAT | -0.226
AGATAGCC | -0.018
CGCAGACC | 0.00034
ATCTTCTG | -0.0223
CCCGACGC | 0.22
AAGAAGAC | -0.14
CAGAATTC | -0.0204
AACCCACA | -0.109
CCCGATCA | 0.0819
CACAGTGG | -0.0483
GGACCGAC | 0.212
AACATGGA | -0.0225
GGGATAGA | -0.029
GATGTGCC | -0.0568
GACCTGGC | 0.0511
GGTGTTAC | -0.041
AACACGAC | -0.0949
AATCTCAA | 0.073

Sequence | PBM E-score
CCACCTCA | -0.13
ACTTAGCA | -0.148
GAGCTTCC | 0.309
CACCGCAA | 0.143
GCTCCTCC | -0.156
AGACAAAA | -0.0462
ATGCTGGA | -0.129
GCACTCGC | 0.121
GCAGCGGA | 0.332
AAGTGACA | -0.0683
GCTAGCAC | -0.136
TACCCATA | -0.263
GGGTGTGA | -0.0882
CCTCCGCA | 0.00168
CATCCATA | -0.128
CACAGGAA | 0.101
ACAATCGG | 0.288
GCATTGAC | -0.205
AGTAACTG | -0.23
ACGGACAA | 0.351
AGCAAACT | 0.0227
CGTGTTGC | 0.0931
CGATCGCG | 0.19
ACTTTTTC | -0.0415
CAGCCTCA | -0.164

Sequence | PBM E-score
AAAATAGC | -0.151
CACTTATC | -0.126
CTGGGCAA | 0.0326
ACTGGTAG | -0.13
CAATTTAA | -0.093
ACGACTTC | -0.174
GGCGTACA | -0.187
ATATTCAC | 0.0248
CCACGTCC | -0.0345
CGGTTCTC | 0.0124
CCGCTACG | 0.00508
GAGGCACC | -0.206
ACCTGTTG | -0.0894
CAAGGGGC | 0.046
AAGACGCG | 0.0421
ACATCCGA | 0.259
TAATGACA | -0.0988
ACACAATG | -0.0193
ATCTAACA | -0.11
ATGGAGCG | 0.0393
CGGCGGTA | 0.323
GGGAAGGA | -0.00585
GTTATAGA | -0.235
AAAAAATG | 0.0704
CCAACGGC | -0.0155

Sequence | PBM E-score
AACTCACG | -0.0378
TAGTGAGA | -0.105
TAGTTCAA | -0.0367
CCTATACG | -0.285
AGTGGTCG | 0.0108
GGAGTCCC | 0.081
GACCTTAC | 0.0765
CGTGAATA | 0.0178
CGGATTAG | 0.175
GCGGCTGA | -0.00796
TCCGCAAA | 0.328
AACGTCCA | -0.136
AAGATCTA | -0.121
CCCTATAC | 0.00357
CCCGGTGC | 0.215
ATTGGCGG | -0.00314
ACCCCAAG | -0.0627
ATCGGACA | 0.221
CGGAAGCA | 0.428
TGGTGACA | -0.114
CCAGACAG | -0.131
ATCGCGAT | 0.209
ATCTCTGG | -0.134
CGCTGGTC | -0.0335
AGGTGTAA | -0.211

Sequence | PBM E-score
AAGTACCC | -0.085
CATATATC | -0.0239
ATCTGGCG | 0.0115
ACTCGTAA | 0.0255
CCTGTTAG | -0.111
GAGGCGGA | 0.175
CCAACAGC | 0.00648
CGTGATTC | 0.0803
ACGGGGGC | -0.0193
TCGCCACA | -0.00326
CATAGTAA | -0.0298
CCTTTGAA | -0.157
GGGGCCGA | -0.154
CTGTGGCA | -0.103
TAGATCCA | -0.0974
AAGGTACT | -0.0597
ACTATCAC | -0.18
CAAAGTGC | -0.129
GATCCTAC | 0.0778
ACTCCCCT | 0.0508
CGCCACAA | -0.0528
GAGCGCCC | 0.041
CACAATTC | 0.0723
TACATAAA | -0.186
GAGAATGC | -0.0223

Sequence | PBM E-score
CCCCAAGC | 0.102
CGGCCGAG | 0.322
ACAACGCC | 0.0246
TCAATAGA | -0.262
CCTAGGGA | -0.108
ATGGCCTC | 0.0436
AACCGAGC | 0.111
AGCGAGTC | -0.102
AGTGCAAG | -0.0678
GCCCACGA | -0.188
GTGCGATA | -0.0185
ACTATGTA | -0.181
ATGACTTG | 0.00252
ACTCCAAT | -0.00392
GCGTGAAA | -0.0621
TCCTCCAA | -0.102
CTGAACTC | -0.215
GAGTGTGC | -0.038
ATGACTGC | -0.00882
AATACCCG | 0.261
CTGGCAAA | -0.0742
ATCTTCGA | -0.115
CTAAGACC | 0.00783
CTCCATAA | -0.273
AAGTGCCG | 0.0826

Sequence | PBM E-score
GCTGGACA | -0.068
AAAAAACC | -0.0481
TGGGACCA | -0.106
AGAGCCAA | -0.163
GAGTAAAA | -0.107
ACTAAATG | -0.0461
CAGGAAGC | 0.0744
GCGTGCAA | -0.172
AGTGCCAC | -0.112
AAAACCGG | 0.253
AAGCTGGG | -0.102
AGATGTCC | 0.0949
TAGCCTAA | -0.291
GTAGGGAC | -0.106
ACTGGTGC | -0.0467
GAGGCGGC | 0.126
CATATGAG | -0.0186
GGCAGGAA | 0.0303
GTACGGTA | 0.0177
ACCAAGAC | 0.0001
ATCCGAAA | 0.248
CTCTTCGA | -0.061
CCGCGAGG | 0.292
AGTCTCCC | -0.0822
AGCGGACG | 0.234

Sequence | PBM E-score
CGCTGAAA | 0.0326
AGCTATAT | 0.0497
TCAATTCA | -0.024
GCCTCCTA | -0.268
GGGCGAGA | 0.0226
CCCTTCCC | 0.0658
ACTAGAAC | -0.00871
ACTTGCCA | -0.00274
CTCATAGC | -0.307
AGGGGGAT | -0.104
GAATTTTA | -0.0134
ATGTGAGG | -0.114
CCACAGAA | -0.159
GAAAACGC | -0.178
ATTGGGTA | -0.256
AATCGCAC | -0.206
AACACGAT | 0.0715
ATTTATTC | 0.113
GGTACATA | 0.121
GATCGATA | -0.0722
ACGTAATA | -0.118
GGCCCTTA | -0.0861
ATTATAGA | -0.161
CACTTAGG | -0.123
CGGTTACG | 0.00035

Sequence | PBM E-score
CTCTTCGC | 0.0423
CAGGGGAG | -0.071
AGGGTTCC | 0.249
ACAATAAC | 0.116
CCGGCGAC | 0.267
GCAACTCA | 0.00983
CTACCCAG | -0.231
CCGCATCC | 0.128
TAGCCTGA | -0.28
CTGAAGCA | -0.199
ACAAAAGG | -0.0346
CTTAGAAA | -0.17
CTGGATAC | -0.0239
CTGCTCGC | -0.0332
CGCGCGGA | 0.383
CTCGCCTC | -0.0716
AACCTCGG | 0.18
GGTTAGAC | 0.0804
GGGCGAAA | 0.132
